Test results taken from the supplement of paper PMC10126150.
Sequences with one replicate were seen in a single cluster, so their values are uncertain.
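Further: ATP exposure 15 min at 22 °C before imaging.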

What follows are sequences tested on ATP (assay: switch fluorescence ratio, 500 uM ATP over buffer (Cy3 cluster intensity, sum of 5 cycles each) (fold (ratio)); higher = stronger signal-on switching upon ATP binding; sequences stand for … in TCGTCGGCAGCGTCAGATGTGTATAAGAGACAGTTTTTTTTTTTTTTTTTTTTTTTTT…TC). Conditions: aptamer strand: ATP DNA aptamer (quencher-CACCTGGGGGAGTATTGCGGAGGAAGG + anchor), 100 nM annealed; ATP concentration: 500 uM; one replicate.
Procedure, shortened: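 Clusters carrying Cy3-labelled switching strands on a modified Illumina MiSeq flow-cell were annealed to 100 nM quencher-labelled ATP aptamer and imaged in selection buffer. They were imaged again after 15 min with 500 uM ATP at 22 °C, over five buffer/ATP cycles with NaOH stripping and re-annealing in between. For each cluster, the fluorescence ratio is the summed Cy3 intensity of the target cycles divided by that of the buffer cycles, averaged per switch-domain sequence. Clusters outside 100-1000 RFU were left out.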
For TGAATGAGAG, the switch fluorescence ratio was 1.06. In the case of TGAATGCTC, the switch fluorescence ratio is reported as 1.01. For TGAATGGGTT, the switch fluorescence ratio was 1.1. TGAATGTAGA was tested, and the switch fluorescence ratio was 1.03. With TGAATTAGTC the switch fluorescence ratio was 1. Sequence TGAATTCAT has a switch fluorescence ratio of 1.04. TGAATTTAAC was tested, and the switch fluorescence ratio was 1.01. TGAATTTCTC showed a switch fluorescence ratio of 1.06. TGACACGATC gave a switch fluorescence ratio of 1.28. TGACAGAAT was tested, and the switch fluorescence ratio was 1.01. TGACATAGTT was tested, and the switch fluorescence ratio was 1.02. With TGACATATAA the switch fluorescence ratio was 1.21. TGACATCGGT showed a switch fluorescence ratio of 1.01. TGACCACGCG was tested, and the switch fluorescence ratio was 1.12. TGACCCCCGC showed a switch fluorescence ratio of 1.44. TGACCGTCCG was tested, and the switch fluorescence ratio was 1.08. Sequence TGACCTAATG has a switch fluorescence ratio of 1. In the case of TGACGCCCAC, the switch fluorescence ratio is reported as 1.95. TGACGGGCCT was tested, and the switch fluorescence ratio was 1.02. Work on TGACGTATGG yielded a switch fluorescence ratio of 1.02. TGACTAATTG was tested, and the switch fluorescence ratio was 1.01. TGACTACACT gave a switch fluorescence ratio of 1.25. In the case of TGACTAGAGC, the switch fluorescence ratio is reported as 0.956. TGACTAGAGG was tested, and the switch fluorescence ratio was 0.979. Work on TGACTATGGC yielded a switch fluorescence ratio of 1. TGACTCCTTA gave a switch fluorescence ratio of 1.03. TGACTGCAAA was tested, and the switch fluorescence ratio was 1.18. TGACTGCATG showed a switch fluorescence ratio of 1.07. TGAGAAACGT gave a switch fluorescence ratio of 1.07. Work on TGAGAACCTG yielded a switch fluorescence ratio of 0.919. TGAGAACGAT showed a switch fluorescence ratio of 1. TGAGAATTGG showed a switch fluorescence ratio of 0.984. TGAGAGTCCG was tested, and the switch fluorescence ratio was 1.01. Work on TGAGATCAGT yielded a switch fluorescence ratio of 1.03. For TGAGATGTGC, the switch fluorescence ratio was 0.983. With TGAGATTTCC the switch fluorescence ratio was 1.1. For TGAGCAACA, the switch fluorescence ratio was 1.02. TGAGCAGGG showed a switch fluorescence ratio of 0.971. Work on TGAGCATGCG yielded a switch fluorescence ratio of 1.07. TGAGCCGATG gave a switch fluorescence ratio of 1.02. Sequence TGAGCGGTTT has a switch fluorescence ratio of 1.02. With TGAGCTCAC the switch fluorescence ratio was 1.05. With TGAGGACGGT the switch fluorescence ratio was 1.01. TGAGGACGTT showed a switch fluorescence ratio of 0.943. With TGAGGCAACG the switch fluorescence ratio was 1.04. With TGAGGCCCTA the switch fluorescence ratio was 1.03. TGAGGCTCTG showed a switch fluorescence ratio of 0.993. In the case of TGAGGCTCTT, the switch fluorescence ratio is reported as 0.989. TGAGGCTGGT was tested, and the switch fluorescence ratio was 0.985. TGAGGCTTG gave a switch fluorescence ratio of 1.03. TGAGGGACAC showed a switch fluorescence ratio of 1.25. For TGAGGGACCC, the switch fluorescence ratio was 0.964. With TGAGGGCTGT the switch fluorescence ratio was 1.04. Sequence TGAGGGGTGT has a switch fluorescence ratio of 1.03. TGAGGGTGT was tested, and the switch fluorescence ratio was 1.12. TGAGGTCGAT showed a switch fluorescence ratio of 1. Sequence TGAGGTCGC has a switch fluorescence ratio of 0.97. TGAGGTGACC was tested, and the switch fluorescence ratio was 0.978. Work on TGAGGTGACT yielded a switch fluorescence ratio of 1. Work on TGAGGTGTCG yielded a switch fluorescence ratio of 0.935. With TGAGTAAGA the switch fluorescence ratio was 0.968. Sequence TGAGTAATT has a switch fluorescence ratio of 1.01. Work on TGAGTACGGT yielded a switch fluorescence ratio of 1.01. In the case of TGAGTATTTC, the switch fluorescence ratio is reported as 0.977. TGAGTCACGG gave a switch fluorescence ratio of 1.02. With TGAGTCGTAT the switch fluorescence ratio was 0.958. In the case of TGAGTCGTGG, the switch fluorescence ratio is reported as 1.01. TGAGTGCAGT was tested, and the switch fluorescence ratio was 1. Sequence TGAGTGCGGC has a switch fluorescence ratio of 0.8. TGAGTGGCGG gave a switch fluorescence ratio of 0.946. TGAGTGTGGA was tested, and the switch fluorescence ratio was 1.04. TGAGTTATA was tested, and the switch fluorescence ratio was 1.04. TGAGTTCAGT was tested, and the switch fluorescence ratio was 1.02. For TGAGTTTAAC, the switch fluorescence ratio was 0.956. With TGATAAAGAG the switch fluorescence ratio was 0.984. TGATAAATCG gave a switch fluorescence ratio of 1.03. Sequence TGATAAGACC has a switch fluorescence ratio of 0.96. Sequence TGATACCCTT has a switch fluorescence ratio of 1.01. With TGATACCGGG the switch fluorescence ratio was 1.01. With TGATAGAACT the switch fluorescence ratio was 0.987. In the case of TGATAGATAG, the switch fluorescence ratio is reported as 0.981. With TGATAGCTGG the switch fluorescence ratio was 0.96. For TGATAGGGAA, the switch fluorescence ratio was 0.996. Work on TGATATCTTA yielded a switch fluorescence ratio of 0.993. For TGATCATTAT, the switch fluorescence ratio was 0.996. For TGATCATTGT, the switch fluorescence ratio was 1.04. Work on TGATCTGTGC yielded a switch fluorescence ratio of 0.979. TGATGAAGTG gave a switch fluorescence ratio of 1.02. TGATGATCTA was tested, and the switch fluorescence ratio was 0.995. TGATGCACTT was tested, and the switch fluorescence ratio was 1.14. Work on TGATGCCGCC yielded a switch fluorescence ratio of 1.13. Sequence TGATGCCGGT has a switch fluorescence ratio of 1.12. In the case of TGATGCTAAC, the switch fluorescence ratio is reported as 1.23. Work on TGATGGAGCC yielded a switch fluorescence ratio of 1.04. Sequence TGATGGCACG has a switch fluorescence ratio of 0.985. For TGATGGGTTC, the switch fluorescence ratio was 0.969. TGATGTCATG showed a switch fluorescence ratio of 0.988. With TGATGTCCGG the switch fluorescence ratio was 1.01. In the case of TGATGTCTTT, the switch fluorescence ratio is reported as 1.02. With TGATGTTCTT the switch fluorescence ratio was 1.03. Sequence TGATTATTGT has a switch fluorescence ratio of 1.07. For TGATTCCGCC, the switch fluorescence ratio was 1.03. TGATTGAACC gave a switch fluorescence ratio of 1.03. With TGATTGCCGT the switch fluorescence ratio was 1. Sequence TGATTTCCGG has a switch fluorescence ratio of 0.975. With TGATTTGCCG the switch fluorescence ratio was 0.846. Sequence TGCAAAAAGA has a switch fluorescence ratio of 0.977. TGCAAACATG gave a switch fluorescence ratio of 0.995. TGCAAACGTC was tested, and the switch fluorescence ratio was 0.934. With TGCAAAGAAT the switch fluorescence ratio was 0.984. Sequence TGCAAAGGCT has a switch fluorescence ratio of 1.01. Sequence TGCAACAAAT has a switch fluorescence ratio of 0.96. Sequence TGCAAGGCAA has a switch fluorescence ratio of 1.04. Work on TGCAAGGGTA yielded a switch fluorescence ratio of 1.01. TGCAAGTCTG showed a switch fluorescence ratio of 0.996. TGCAATAGGC showed a switch fluorescence ratio of 1.62. With TGCAATGCGT the switch fluorescence ratio was 1.82. Work on TGCACAGGAG yielded a switch fluorescence ratio of 1.22. In the case of TGCACCAAGA, the switch fluorescence ratio is reported as 1.03. In the case of TGCACCCCTC, the switch fluorescence ratio is reported as 1.06. With TGCACCTAAA the switch fluorescence ratio was 1.01. TGCACGATGT gave a switch fluorescence ratio of 1.04. Sequence TGCACTAAAG has a switch fluorescence ratio of 1.02. Work on TGCAGAAAAG yielded a switch fluorescence ratio of 0.984. In the case of TGCAGAACTC, the switch fluorescence ratio is reported as 1.42. With TGCAGAGGCT the switch fluorescence ratio was 1.06. TGCAGCGATC gave a switch fluorescence ratio of 5.02. For TGCAGGACCA, the switch fluorescence ratio was 1. In the case of TGCAGGCTA, the switch fluorescence ratio is reported as 1. TGCAGGT showed a switch fluorescence ratio of 1.05. TGCAGTGGGC gave a switch fluorescence ratio of 1.04. Sequence TGCAGTTGAA has a switch fluorescence ratio of 1.13. Work on TGCATAAAGT yielded a switch fluorescence ratio of 0.997. TGCATCAAAT showed a switch fluorescence ratio of 1.02. In the case of TGCATGTGAA, the switch fluorescence ratio is reported as 0.982. With TGCATTTGTT the switch fluorescence ratio was 0.993. Work on TGCCAAATAT yielded a switch fluorescence ratio of 0.965. TGCCAATGGC showed a switch fluorescence ratio of 0.996. TGCCACAATT gave a switch fluorescence ratio of 0.991. TGCCACCGCT was tested, and the switch fluorescence ratio was 1.17. Work on TGCCAGCGTC yielded a switch fluorescence ratio of 1.03. Sequence TGCCAGGCAC has a switch fluorescence ratio of 1.01. For TGCCAGGCGA, the switch fluorescence ratio was 1.02. In the case of TGCCATGTGA, the switch fluorescence ratio is reported as 1.01. In the case of TGCCATTGGA, the switch fluorescence ratio is reported as 1.05. TGCCCGCATA was tested, and the switch fluorescence ratio was 2.1. Work on TGCCCGTCCG yielded a switch fluorescence ratio of 0.96. TGCCCGTTCC was tested, and the switch fluorescence ratio was 1.19. In the case of TGCCGAGTTA, the switch fluorescence ratio is reported as 1.02. TGCCGGTCGA showed a switch fluorescence ratio of 0.968. TGCCGTATTA was tested, and the switch fluorescence ratio was 1.02. Sequence TGCCGTGCGT has a switch fluorescence ratio of 1.02. Work on TGCCGTTGTG yielded a switch fluorescence ratio of 1.01. For TGCCTAACCA, the switch fluorescence ratio was 0.946. With TGCCTAGAAG the switch fluorescence ratio was 1.01. Sequence TGCCTATGAT has a switch fluorescence ratio of 0.98. Work on TGCCTGCGTT yielded a switch fluorescence ratio of 1.03. In the case of TGCCTGGGGC, the switch fluorescence ratio is reported as 1.05. With TGCCTGGTGC the switch fluorescence ratio was 1.11. TGCCTTTAAC gave a switch fluorescence ratio of 1. Sequence TGCGAAAGTA has a switch fluorescence ratio of 1.03. TGCGAACCTC showed a switch fluorescence ratio of 1.04. TGCGACAGAC gave a switch fluorescence ratio of 1.09. TGCGAGGAGG was tested, and the switch fluorescence ratio was 1.02. Sequence TGCGAGTAGC has a switch fluorescence ratio of 0.984. For TGCGAGTGGC, the switch fluorescence ratio was 1.2. Work on TGCGATAAAC yielded a switch fluorescence ratio of 1.17. TGCGATGAGA was tested, and the switch fluorescence ratio was 1.04. TGCGATTAAA gave a switch fluorescence ratio of 1.02. In the case of TGCGATTTAG, the switch fluorescence ratio is reported as 1.03. With TGCGCAAGCG the switch fluorescence ratio was 1.04. Work on TGCGCGAAGC yielded a switch fluorescence ratio of 1.01. In the case of TGCGCGAATG, the switch fluorescence ratio is reported as 0.969. Sequence TGCGCGCACG has a switch fluorescence ratio of 1.01. Work on TGCGCGGTGG yielded a switch fluorescence ratio of 1.02. With TGCGCTAATT the switch fluorescence ratio was 1.06. For TGCGCTTCTG, the switch fluorescence ratio was 1.04. Work on TGCGGAAGAG yielded a switch fluorescence ratio of 1.05. TGCGGACGGT was tested, and the switch fluorescence ratio was 0.998. Sequence TGCGGAGGAC has a switch fluorescence ratio of 1.01. For TGCGGCAAAG, the switch fluorescence ratio was 1.4. TGCGGCCCCT showed a switch fluorescence ratio of 1.05. TGCGGCCTGG was tested, and the switch fluorescence ratio was 0.971. TGCGGCTCAG showed a switch fluorescence ratio of 0.985. TGCGGCTCAT showed a switch fluorescence ratio of 0.959. For TGCGGGAAAC, the switch fluorescence ratio was 0.978. With TGCGGGGAAA the switch fluorescence ratio was 1.3. Work on TGCGGTAAAT yielded a switch fluorescence ratio of 2.14. TGCGGTACCG showed a switch fluorescence ratio of 1. In the case of TGCGTAAGTC, the switch fluorescence ratio is reported as 1.03. TGCGTCAGTG was tested, and the switch fluorescence ratio was 0.984. Work on TGCGTCGAGG yielded a switch fluorescence ratio of 1.01. For TGCGTCTAGG, the switch fluorescence ratio was 0.982. TGCGTGCTTA gave a switch fluorescence ratio of 0.961. Sequence TGCGTGGATG has a switch fluorescence ratio of 1.02. Work on TGCGTGGTAA yielded a switch fluorescence ratio of 1.03. Sequence TGCGTGTAGT has a switch fluorescence ratio of 0.97. With TGCGTTCATC the switch fluorescence ratio was 1.03. Work on TGCGTTCCCA yielded a switch fluorescence ratio of 1.03. For TGCGTTCTCT, the switch fluorescence ratio was 0.99.
